Hit rate of the full screen: of about 110,000 compounds, about 230 (0.21%) showed an effect of 50% or more. This is one part of the list.
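Note: 30 min substrate incubation versus DMSO and 10 µM JCP410 controls.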

Sequence of DPAP1 (Q8IIJ9 whole entry, looked up): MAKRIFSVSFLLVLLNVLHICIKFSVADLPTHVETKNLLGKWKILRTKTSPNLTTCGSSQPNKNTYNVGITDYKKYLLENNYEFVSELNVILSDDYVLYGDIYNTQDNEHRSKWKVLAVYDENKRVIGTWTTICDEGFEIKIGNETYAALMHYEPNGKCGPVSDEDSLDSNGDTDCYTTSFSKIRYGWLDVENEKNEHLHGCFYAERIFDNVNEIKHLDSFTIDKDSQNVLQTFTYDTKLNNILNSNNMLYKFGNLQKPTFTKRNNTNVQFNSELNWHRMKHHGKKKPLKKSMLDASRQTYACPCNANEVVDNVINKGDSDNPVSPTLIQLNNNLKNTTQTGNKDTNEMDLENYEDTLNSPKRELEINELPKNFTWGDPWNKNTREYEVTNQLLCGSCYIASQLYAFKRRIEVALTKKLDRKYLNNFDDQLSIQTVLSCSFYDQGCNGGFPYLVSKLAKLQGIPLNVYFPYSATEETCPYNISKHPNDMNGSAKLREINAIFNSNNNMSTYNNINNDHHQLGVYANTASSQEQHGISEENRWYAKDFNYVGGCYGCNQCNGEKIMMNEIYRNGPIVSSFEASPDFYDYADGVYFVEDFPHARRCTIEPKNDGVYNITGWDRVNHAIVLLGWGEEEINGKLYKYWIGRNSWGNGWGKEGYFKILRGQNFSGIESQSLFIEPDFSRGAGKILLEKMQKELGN

The assay concerns the target DPAP1 (Plasmodium falciparum, UniProt Q8IIJ9). In words: primary screen, percent inhibition; read by cleavage of a fluorogenic dipeptide substrate; higher = more effect of the substance. The arrangement: species or system P. falciparum D10 trophozoite lysates; single well.
In the case of `COc1ccccc1NC(=O)COc1cc(Br)c(/C=C2\SC(N)=NC2=O)cc1OC`, the “% Inhibition @ 10 uM” value is recorded as -5.32%. The same measure for `Cc1ccc(N(C)C(=O)N2CCN(S(=O)(=O)c3c(C)cc(C)cc3C)CC2)cc1`: 0.145%; for `O=C1OCCN/C1=C\C(=O)c1ccccc1`: -0.807%; for `CC(=O)Nc1ccc(S(=O)(=O)NCc2cccs2)cc1`: 2.93%. As to `CCOC(=O)c1[nH]c2c(OC)cc(OC)cc2c1CCN1C(=O)c2ccccc2C1=O`, the “% Inhibition @ 10 uM” value is -7.67%.

Take `CCOc1ccc(-c2nnc(NC(=O)c3ccco3)s2)cc1`: the “% Inhibition @ 10 uM” value was -2.6%.

In the case of `Cc1cc(Br)ccc1S(=O)(=O)N1CCCCC1`, the “% Inhibition @ 10 uM” value is given as 0.565%. The same measure for `CC1CCN(C2CCN(Cc3ccccc3F)CC2)CC1`: 3.54%. Take `CCOC(=O)c1[nH]c2c(c1Cc1ccccc1OC)C(=O)CC(C)(C)C2`: the “% Inhibition @ 10 uM” value is on record as 4.07%. The figure for `COc1ccc(C(=O)Nc2cccc3c2CCCC3)cc1` is 4.22%; for `CCOc1cccc(C2SCC(C(=O)O)N2C(C)=O)c1O` (centres unmarked) it is 1.79%. As for `Cc1ccc(NC(=O)c2cccs2)cc1Cl`, the “% Inhibition @ 10 uM” value is listed as -0.856%. The same measure for `CCN1CCN(c2cc(C)c3ccc(Cl)cc3n2)CC1`: -1.85%; for `Cc1ccc(CCNC(=O)C(C)n2nc(C)c3c(C)n(-c4ccccc4)nc3c2=O)cc1` (centres unmarked): 0.227%; for `O=C1N=C(N2CCOCC2)SC1=C1CCCC1`: -1.33%. The same measure for `Cc1cccc(OCC(=O)Nc2cc(-c3nc4ncccc4o3)ccc2Cl)c1`: 4.83%; for `CCCc1cc(C(=O)N2N=C(C(F)F)CC2(O)C(F)F)c2ccccc2n1` (centres unmarked): -1.36%; for `COc1ccc(C(=O)Nc2cccnc2)cc1S(=O)(=O)N1CCOCC1`: -6.04%. Consider `C=CCSc1nc(O)c2c(n1)NC(=O)CC2c1cccc(F)c1F` (centres unmarked), for which the “% Inhibition @ 10 uM” value is -2.88%. The same measure for `CN1CCN(C(=O)NCC2CC(=O)N(Cc3ccccc3)C2)CC1` (centres unmarked): -0.318%; for `Nc1cc(C(=O)O)c(N)cc1C(=O)O`: 3.32%; for `O=C(O)c1ccc2c(c1)C(=O)N(c1ccccc1O)C2=O`: -1.29%. The figure for `Cc1ccc(S(=O)(=O)N2CCCCCC2)cc1C(=O)NC1CCCCC1` is -6.3%. As to `CC(C)C[C@H](NC(=O)c1ccc([N+](=O)[O-])cc1)C(=O)NCC#N`, the “% Inhibition @ 10 uM” value is recorded as -1.41%. The figure for `COc1cc(C2NC(=O)CS2)cc(OC)c1OC` (centres unmarked) is 0.774%.

As for `COCCCNC1CCC(C(C)(C)C)CC1` (centres unmarked), the “% Inhibition @ 10 uM” value is on record as -1.5%. In the case of `C=CCN(C#N)c1nc(N(C)C)nc(N(C)C)n1`, the “% Inhibition @ 10 uM” value is recorded as -1.92%.

Consider `CC(C)=CCCC(C)CN1CCN(C/C=C/c2ccccc2)CC1` (centres unmarked), for which the “% Inhibition @ 10 uM” value was -2.24%. The figure for `CCS(=O)(=O)C1=NN2C(=N)/C(=C\c3ccc(OC)c(OC)c3)C(=O)N=C2S1` is 1.9%; for `Cn1c(=O)[nH]c(=O)c2c1ncn2CCNC1=NCCCCC1` it is -5.14%. The same measure for `Cc1cccc(OCC(=O)N2CCN(C(=O)c3ccccc3F)CC2)c1`: 1.84%. The same measure for `CCOc1ccc2nc(NC(=O)Nc3sc4nc5n(c(=O)c4c3C)CCC(C)CC5)sc2c1` (centres unmarked): 0.0198%; for `COC(=O)C1=CN(C2CCCCC2)C=C(C(=O)OC)C1c1cccc(C)c1`: -1.11%.

For the compound `CCn1cc(Cl)c(C(=O)Nc2c(C)nn(Cc3cccc(F)c3)c2C)n1`, the “% Inhibition @ 10 uM” value was -5.48%.

With `CC1=C(C(=O)Nc2ccccc2C)C(c2ccc(C)cc2)NC(=O)N1` (centres unmarked), the “% Inhibition @ 10 uM” value came to 9.5%. The same measure for `CCN(CC)c1ccc(/C=C/C(=O)C23CC4CC(CC(C4)C2)C3)cc1`: 1.38%; for `CCOC(=O)c1sc2ccc(S(=O)(=O)N3CCCCC3)cc2c1N`: -1.99%; for `CCCCOC(=O)Nc1nc2ccc(OC)cc2s1`: -5.01%. The same measure for `Cc1ccc2c(C)nc(Nc3nc(O)c4c(n3)CCCC4)nc2c1`: -1.42%; for `CC(C)Cc1ccc(-c2[nH]nc3c2C(c2ccsc2)C(C#N)=C(N)O3)cc1` (centres unmarked): -4.51%. The figure for `CCOC(=O)c1c(NCc2ccccc2O)sc2c1CCCC2` is 6.12%; for `CCc1ccc(CNC(=O)CN2N=C(c3ccc(C)cc3)CCC2=O)cc1` it is -1.43%; for `CC(O)CN(Cc1ccc(F)cc1F)CC(C)O` (centres unmarked) it is -1.21%. As for `Cc1cc(C)c(-c2c(O)c3cccnc3n(C)c2=O)c(C)c1`, the “% Inhibition @ 10 uM” value was -1.99%. Turning to `CC(=O)Nc1scc(-c2ccccc2)c1C(=O)N1CCOCC1`, the “% Inhibition @ 10 uM” value amounted to 0.778%.

For the compound `Cc1ccc(-c2nc(-c3ccccn3)no2)cc1`, the “% Inhibition @ 10 uM” value is 1.52%. The same measure for `O=C(NCc1ccncc1)c1ccc(Cl)c(Cl)c1`: 1.88%. The figure for `CC(=O)c1ccc(N2CCN(C(=O)/C(=C/c3cccs3)NC(=O)c3ccccc3)CC2)cc1` is 2.44%; for `Cc1ccc(NC(=O)COc2cccc(C(F)(F)F)c2)cc1` it is 0.992%. The same measure for `Cc1ccc(-c2ccc(S(=O)(=O)Nc3cccnc3)cc2)cc1`: -0.088%; for `CCCCNC(=O)Cn1c(=O)cc(C)c2c(C)nn(-c3cccc(F)c3)c21`: -0.12%.

With `Cc1ccccc1OCC(=O)Nc1cccc(N)c1`, the “% Inhibition @ 10 uM” value is given as -3.04%. For `CC1CCCCN1Cc1nc2c(c(=O)n(C)c(=O)n2C)n1CCc1ccccc1` (centres unmarked), the “% Inhibition @ 10 uM” value was 2%. Consider `CC(C)(C)c1ccc(C(=O)N(Cc2cccc(F)c2)C2CCS(=O)(=O)C2)cc1` (centres unmarked), for which the “% Inhibition @ 10 uM” value is -4.95%. The same measure for `C/N=C1/S/C(=C\c2ccc(-c3cc(Cl)ccc3OC)o2)C(=O)N1C`: 6.65%; for `CC(C)(C)c1cc(CCC#N)cc(C(C)(C)C)c1O`: -5.51%. With `O=C(CCS(=O)(=O)c1ccccc1)NCc1ccc2c(c1)OCO2`, the “% Inhibition @ 10 uM” value was -3.93%. Take `CC(C(=O)NCCc1ccc(Cl)cc1)n1c2ccccc2c2cnnc(O)c21` (centres unmarked): the “% Inhibition @ 10 uM” value is -9.53%. The figure for `O=C(CN(CCc1ccccc1)S(=O)(=O)c1ccc(Cl)cc1)N1CCN(c2ccccc2)CC1` is -3.39%; for `CC(C)CC(NC(=O)c1cccc(NC(=O)N2CCN(Cc3ccccc3)CC2)c1)C(=O)NCC#N` (centres unmarked) it is 7.72%; for `O=c1cc(CSc2nc[nH]n2)nc2sccn12` it is -3.76%. Take `O=c1c(CN2CCN(c3ccc(F)cc3)CC2)coc2c(Cl)cc(Cl)cc12`: the “% Inhibition @ 10 uM” value is -5.65%. The figure for `CCOC(=O)C1CCCN(Cc2ccc(O)cc2)C1` (centres unmarked) is -1.86%.

In the case of `CC(C)C[C@H](NC(=O)c1cccc(-c2ccc(S(C)(=O)=O)cc2)c1)C(=O)NCC#N`, the “% Inhibition @ 10 uM” value was determined as 5.76%. The same measure for `CS(=O)(=O)N(CC(=O)N1CCc2ccccc2C1)c1cccc(F)c1`: -0.641%; for `COc1ccccc1[N+]1=C2CCCCN2C(O)(c2ccc(C)cc2C)C1` (centres unmarked): 1.75%. The figure for `O=C(NCCN1CCCCCC1)c1ccc(CS(=O)(=O)c2c(Cl)cccc2Cl)o1` is -2.85%; for `CCOC(=O)C1CCN(Cc2cccc3ccccc23)CC1` it is -0.294%; for `CC1CCN(CC(=O)n2c3c(c4ccccc42)CCCC3)CC1` it is 6.22%.

For `CC1CCN(S(=O)(=O)c2ccc(NC(=O)COc3ccc4ccccc4c3)cc2)CC1`, the “% Inhibition @ 10 uM” value is -5.96%.

Turning to `CCOC(=O)CSc1nc2ccc(N)cc2s1`, the “% Inhibition @ 10 uM” value is recorded as -1.2%. The same measure for `COC(=O)c1c(NC(=O)/C(C#N)=C/c2ccccc2)sc2c1CCCC2`: -2.87%; for `CCOc1ccc(NC(=O)C(C)N2C(=O)C3C4C=CC(C4)C3C2=O)cc1` (centres unmarked): -3.23%.

In the case of `Cc1nc2ncnn2c(C)c1CCC(=O)N1CC(C)CC(C)C1` (centres unmarked), the “% Inhibition @ 10 uM” value is given as -10.1%.

For `O=C(Nc1ccc(S(=O)(=O)N2CCCCC2)cc1)c1ccc(F)cc1`, the “% Inhibition @ 10 uM” value was found to be 5.03%. With `CC(NS(=O)(=O)c1ccc2oc(=O)c3ncn(C)c3c2c1)c1ccccc1` (centres unmarked), the “% Inhibition @ 10 uM” value is on record as -0.0709%.

Consider `CCNC(=O)c1cccnc1Nc1cccc(C(F)(F)F)c1`, for which the “% Inhibition @ 10 uM” value is reported as 4.83%. The figure for `O=C1CC(N2CCCC2)C(=O)N1c1ccc(Cl)c(Cl)c1` (centres unmarked) is -5.31%. Turning to `O=S1(=O)CC(c2ccccc2)CS(=O)(=O)C1CCN1CCCCC1` (centres unmarked), the “% Inhibition @ 10 uM” value is on record as -5.28%. The figure for `O=C(Cn1c2ccccc2c2cnnc(O)c21)NCCN1CCOCC1` is 4.55%. The figure for `Cc1c(CN2CCOCC2)c(=O)n(-c2ccccc2)n1C` is 1.38%; for `O=C(CCC(=O)n1ncc2ccc(Cl)cc21)NCc1ccco1` it is 3.84%. The figure for `CCC(C)NC(=O)C1CCN(Cc2nc(-c3ccccc3C)oc2C)CC1` (centres unmarked) is 0.689%.

For `O=C1NC(=O)N(Cc2ccccc2)C(=O)/C1=C\c1ccccc1`, the “% Inhibition @ 10 uM” value came out at 0.0345%.

Take `Cc1cccc(C)c1-c1ccc(C(=O)N[C@@H](CC(C)C)C(=O)NCC#N)cc1`: the “% Inhibition @ 10 uM” value is -1.41%. The figure for `Cc1cc(C)c(S(=O)(=O)Nc2ccc(O)cc2)cc1C` is -9.13%; for `Cc1ccc(OC(C)C(=O)Nc2ccc(C)cc2C)cc1` (centres unmarked) it is -4.02%; for `COc1ccc(-c2c(C)nn3c(O)c(Cl)c(C)nc23)cc1` it is -3.44%. The figure for `Cc1cccc(CCNC(=O)c2nnc(Cc3ccc(F)cc3)o2)c1` is -1.59%; for `Cc1ccc(NC(=O)Cc2ccc(F)cc2F)cc1` it is -3.94%; for `C=Cc1ccc(Cn2c(C)c(CNCc3cccc(Cl)c3)c(C(=O)O)c2C)cc1` it is 4.53%. The figure for `COc1ccc(CCc2nc(-c3ccc(C(F)(F)F)cc3)no2)cc1` is -2.4%; for `COc1ccc(S(=O)(=O)N2CC(C)CC(C)C2)cc1` (centres unmarked) it is -2.54%. On to `CCn1c(SCc2ccc(Cl)cc2Cl)nc2c1c(=O)n(C)c(=O)n2C`, for which the “% Inhibition @ 10 uM” value worked out at 12%. The figure for `CC(NC(=O)Cc1ccccc1)c1cc2c(cc1Br)OCCCO2` (centres unmarked) is 3.8%.

With `Cn1cccc1CNCCc1ccc(S(N)(=O)=O)cc1`, the “% Inhibition @ 10 uM” value was -0.183%. The figure for `CC1=C(C(=O)N2CCCCC2)C(c2ccccc2OC(F)F)n2c(nc3ccccc32)N1` (centres unmarked) is -0.326%. Regarding `COc1ccccc1NC1=C(C(=O)c2ccccc2)N(C)S(=O)(=O)c2ccccc21`, the “% Inhibition @ 10 uM” value was 5.49%. The same measure for `CCOCCCNC(=O)c1cnc2ccc(S(=O)(=O)N3CCC4(CC3)OCCO4)cc2c1O`: -2.21%; for `CCCC(=O)NS(=O)(=O)c1ccc(NC(=O)c2ccc(Cl)cc2)cc1`: 0.909%; for `COc1ccc2c(c1)C(=O)N(Cc1ccccc1)C(=O)/C2=C/N1CCOCC1`: -1.79%.
